{"source": "PubChem BioAssay AID624296", "about": "(National Center for Advancing Translational Sciences (NCATS), 2012)", "note": "“And” between values parts separate entries of the source, which are not always exact repeats. Equal entries are not always repeated. The whole screen tested about 350,000 compounds, of which about 9,900 (2.8%) were called active. Inconclusive results, whose numbers are uncertain, are shown with a selection of clear calls. Calls follow the shape of the dose curve; as a rule, active = well fitted activation curve with a large enough effect; inconclusive = small, poorly fitted or top-dose-only effect; inactive = no such curve, though single readings can be large or run the other way. A potency beside an inconclusive call is a rough fit, not a confirmed value. Potency is read from the fitted curve at half-maximal effect; tags tell the direction and shape of the fitted curve.", "data": [{"experiment": "A quantitative high throughput screen for small molecules that induce DNA re-replication in MCF 10a normal breast cells; also: nearly all actives have a fitted effect of over 50% in size; as to activity, positive = re-replication: % of control where 0% means no effect.", "conditions": "MCF 10A DNA re-replication, Hoechst nuclear intensity, 48 h; activity, positive = re-replication: at 46.1 µM (top of the series)", "values": [{"smiles": "COc1ccccc1CNC(=O)N1CCN(c2ccccc2Cl)CC1", "Potency": "inconclusive: 7.31 µM [activator, partial curve, poor fit]"}, {"smiles": "Cc1ccc(Nc2nnc(SCc3cc(=O)n4ccsc4n3)s2)c(C)c1", "Potency": "inconclusive: 29.1 µM [activator, partial curve, poor fit]"}, {"smiles": "COc1ccc(/C=N/Nc2nncn2N)cc1Br", "Potency": "inactive"}, {"smiles": "C=CCn1c(SCC(=O)Nc2ccc3c(c2)OCO3)nnc1-c1cc(Br)ccc1O", "activity, positive = re-replication": "inactive: 694% [at 0.0737 µM]"}, {"smiles": "O=C(CCl)Nc1nc(-c2ccco2)c(-c2ccco2)s1", "Potency": "inconclusive: 29.1 µM [activator, single point]"}, {"smiles": "S=c1[nH]nc(CSCc2ccccc2Cl)n1C1CCCCC1", "Potency": "inconclusive: 18.4 µM [activator, single point]"}, {"smiles": "COc1ccc(S(=O)(=O)Nc2ccc3c(c2)C(=O)N([C@H](C)CO)C[C@H](C)[C@@H](CN(C)S(C)(=O)=O)O3)cc1", "Potency": "inactive"}, {"smiles": "CCNc1nc(NCC)nc(N(C)N)n1", "Potency": "inactive"}, {"smiles": "CCn1c(N2CCN(CC(=O)c3c[nH]c4ccccc34)CC2)nc2c1c(=O)[nH]c(=O)n2C", "Potency": "inactive"}, {"smiles": "CC(O)CN(C)C", "note": "(configuration not stated)", "Potency": "inactive"}, {"smiles": "CCCCNS(=O)(=O)c1ccc2nc(-c3cccnc3)cc(C(=O)NCC(OC)OC)c2c1", "Potency": "inactive"}, {"smiles": "COC(=O)[C@@]1(Cc2ccccc2)[C@H]2C(=O)N(Cc3ccccc3)C(=O)[C@H]2[C@H]2CN=C(SCC3CC3)N21", "Potency": "inconclusive: 20.6 µM [activator, partial curve, poor fit]"}, {"smiles": "O=C(Cc1ccccc1[N+](=O)[O-])NCc1ccncc1", "Potency": "inconclusive: 0.366 µM [activator, full curve, poor fit]"}, {"smiles": "Nc1nc(=S)c2[nH]c(=S)[nH]c2[nH]1", "Potency": "inconclusive: 7.31 µM [activator, partial curve]"}, {"smiles": "C[C@@H]1C(c2ccccc2)=NN(c2ccc(Br)cc2)[C@H]1C(=O)N1CCOC1=O", "Potency": "active: 14.6 µM"}, {"smiles": "O=C(NC(=S)Nc1cccc(Cl)c1N1CCCC1)c1ccc(-c2cccc([N+](=O)[O-])c2)o1", "Potency": "inconclusive: 5.8 µM [activator, full curve, poor fit]"}, {"smiles": "Cc1ccc(COc2ccc(Br)cc2/C=N/O)cc1", "Potency": "inconclusive: 29.1 µM [activator, single point]"}, {"smiles": "CN1CCC(=O)N(CCSc2ccccc2)CC1", "Potency": "inconclusive: 6.51 µM [activator, single point]"}, {"smiles": "Cc1ccc2c(=O)[nH]c(Nc3nc(C)cc(-c4ccccc4)n3)nc2c1", "Potency": "inactive"}, {"smiles": "COc1ccc(OC)c(CN2CCN(C(=O)c3cccc(S(=O)(=O)Nc4ccc(F)cc4)c3)CC2)c1", "Potency": "inactive"}, {"smiles": "Cc1ccc(NC(=O)c2c(C)nc3ccccn23)cc1C", "Potency": "inactive"}, {"smiles": "NS(=O)(=O)c1ccc(N/C=C\\C(=O)c2ccc(F)cc2)cc1", "Potency": "inconclusive: 16.4 µM [activator, single point]"}, {"smiles": "COc1ccc(/C=N/NC(=O)c2ccc(COc3ccccc3Cl)o2)c(OC)c1C", "Potency": "inconclusive: 16.4 µM [activator, partial curve, poor fit]"}, {"smiles": "CCOC(=O)c1ccc(NC(=S)NC(=O)c2cncc(Br)c2)cc1", "Potency": "inconclusive: 29.1 µM [activator, single point]"}, {"smiles": "Cc1nc(Cl)c(S(N)(=O)=O)c(C)c1Cl", "Potency": "inactive"}, {"smiles": "CCC(=O)NC(Nc1sc2c(c1C(=O)OC)CCC2)C(Cl)(Cl)Cl", "note": "(configuration not stated)", "Potency": "inconclusive: 29.1 µM [activator, partial curve, poor fit]"}, {"smiles": "Cc1cc(OCCCn2ccnc2)ccc1[N+](=O)[O-]", "Potency": "inactive"}, {"smiles": "COc1ccc2c(c1)c(C(C)=O)c(C)n2-c1ccc(C(C)=O)cc1", "Potency": "inactive"}, {"smiles": "O=C(c1cccnc1)N1CCC(Oc2ccc(C(=O)N3CCCC(O)C3)cc2)CC1", "note": "(configuration not stated)", "Potency": "inconclusive: 5.62 µM [activator, full curve, poor fit]"}, {"smiles": "CCN(CC)CCOC(=O)c1ccc(NC(=O)c2cn(-c3ccccc3)nc2-c2cccs2)cc1", "Potency": "active: 20.6 µM"}, {"smiles": "NC(CSC1(c2cccc3ccccc23)c2ccccc2-c2ccccc21)C(=O)O", "note": "(configuration not stated)", "Potency": "inconclusive: 23.1 µM [activator, single point]"}, {"smiles": "O=C(Nc1ccccc1Cl)N1CCN(c2ccc3nnc(-c4ccc(F)cc4)n3n2)CC1", "Potency": "inactive"}, {"smiles": "Cc1ccc(-c2cc(C(F)F)n3ncc(C(=O)N4CCCc5ccccc54)c3n2)cc1", "Potency": "inactive"}, {"smiles": "COC(=O)[C@@]1(Cc2ccc(OC)cc2)[C@H]2c3cc(C(=O)N(C)C)n(Cc4ccc(OC(F)(F)F)cc4)c3C[C@H]2CN1C(=O)c1ccccc1", "Potency": "inconclusive: 7.31 µM [activator, partial curve, poor fit]"}, {"smiles": "COc1cccc(-c2sc3ccc(OC)cc3c2C#CC(C)(C)O)c1", "Potency": "inconclusive: 25.9 µM [activator, single point]"}, {"smiles": "Cc1cc(C(F)(F)F)n(-c2nc(C(=O)O)cs2)n1", "activity, positive = re-replication": "inconclusive: -29.1% [activator]"}, {"smiles": "COc1cc2c(cc1NC(=O)/C=C/c1cc(OC)c(OC)c(OC)c1)oc1ccccc12", "Potency": "inactive"}, {"smiles": "Cc1cccc(NC(=S)NC(=O)C(c2ccccc2)c2ccccc2)n1", "Potency": "inconclusive: 29.1 µM [activator, partial curve, poor fit]"}, {"smiles": "CCCNC(=O)c1cnc(-c2ccccc2)nc1-c1ccccc1", "Potency": "inconclusive: 23.1 µM [activator, partial curve, poor fit]"}, {"smiles": "O=C(COc1ccccc1Cc1ccccc1)Nc1cccnc1", "Potency": "inactive"}, {"smiles": "CCOc1ccc(C2NC(=O)C(C#N)=C(S)N2c2ccc(C)cc2)cc1OC", "note": "(configuration not stated)", "Potency": "inconclusive: 29.1 µM [activator, single point]"}, {"smiles": "O=C(Nc1ccccc1)c1cc([N+](=O)[O-])ccc1NCc1cccnc1", "Potency": "inactive"}, {"smiles": "Cc1ccc(C)c(S(=O)(=O)N2CCN(C(=O)CCNC(=O)c3ccc(Br)cc3)CC2)c1", "Potency": "inconclusive: 29.1 µM [activator, single point]"}, {"smiles": "CC(=O)OCC(=O)N1CCN(c2ccc([N+](=O)[O-])cc2)CC1", "Potency": "inactive"}, {"smiles": "C=CCn1c(SCC(=O)NC2CCCc3ccccc32)nnc1-c1ccncc1", "note": "(configuration not stated)", "Potency": "inconclusive: 16.4 µM [activator, single point]"}, {"smiles": "Cc1nc(-c2ccc(NC(=O)CC(C)C)cc2)cs1", "Potency": "inactive"}, {"smiles": "CCc1cc2ccc(C)cc2nc1SCC(=O)c1ccc(NC(C)=O)cc1", "Potency": "inactive"}, {"smiles": "CCC(C)N=C1CC(C)(C)CC(=O)/C1=C(/O)Cc1ccccc1", "note": "(configuration not stated)", "Potency": "inconclusive: 0.82 µM [activator, full curve, poor fit]"}, {"smiles": "O=C(c1ccc(Cl)c(S(=O)(=O)NCc2ccco2)c1)N1CCN(c2ccc(F)cc2)CC1", "Potency": "inconclusive: 8.2 µM [activator, partial curve, poor fit]"}, {"smiles": "COc1ccc(C)cc1NC(=O)c1sc2nc(C)nc(N3CCOCC3)c2c1C", "Potency": "inactive"}, {"smiles": "Cc1cccc(C(=O)OCC(=O)N2CCCCCC2)c1O", "Potency": "inactive"}, {"smiles": "Cc1oc(C(=O)Nc2ccc(O)cc2)cc1COc1ccccc1", "Potency": "inconclusive: 18.4 µM [activator, single point]"}, {"smiles": "O=C(/C=C/c1ccc(-c2ccccc2[N+](=O)[O-])o1)c1ccco1", "Potency": "inconclusive: 18.4 µM [activator, single point]"}, {"smiles": "CSc1nsc2nc(=O)c(/C=C3\\C(C)=Nc4ccc(C)cc43)c(N)n12", "Potency": "active: 9.2 µM"}, {"smiles": "CCOc1ccc2ccccc2c1CNCCc1ccc(S(N)(=O)=O)cc1", "Potency": "inactive"}, {"smiles": "CN(N)c1nc(-c2ccccc2)cc(-c2ccccc2)n1", "Potency": "inconclusive: 2.91 µM [activator, partial curve, poor fit]"}, {"smiles": "CC(C)C(=O)Nc1nc(-c2ccc(S(=O)(=O)N3CCOCC3)cc2)cs1", "Potency": "inconclusive: 29.1 µM [activator, single point]"}, {"smiles": "O=C(NS(=O)(=O)Oc1ccccc1F)OC[C@@H]1CCCN2CCCCC12", "note": "(some centres not stated)", "Potency": "inconclusive: 29.1 µM [activator, single point]"}, {"smiles": "O=C(c1ccc(OCCN2CCCCC2)cc1)c1c(-c2ccc(O)cc2)sc2cc(O)ccc12", "Potency": "inconclusive: 33.5 µM [activator, single point] and inconclusive: 18.4 µM [activator, single point] and inconclusive: 4.11 µM [activator, single point]"}, {"smiles": "CN(Cc1ccccc1)c1nc(-c2ccc([N+](=O)[O-])cc2)nc2ccccc12", "Potency": "inactive"}, {"smiles": "Cc1ccc(/C=C/C(=O)c2cc(Br)ccc2OC(=O)c2ccco2)cc1", "Potency": "active: 16.4 µM"}, {"smiles": "OCCCNc1nc(-c2ccccc2)c2cc(Br)ccc2n1", "Potency": "active: 4.61 µM"}, {"smiles": "COc1ccc(OC)c(NC(=O)c2cnc(Nc3ccccc3OC)c3ccccc23)c1", "Potency": "inactive"}, {"smiles": "COc1cc(S(=O)(=O)N2CCC(c3nc4ccccc4s3)CC2)ccc1S(=O)(=O)N1CC(C)CC(C)C1", "note": "(configuration not stated)", "Potency": "inactive"}, {"smiles": "Nc1c(N(Cc2ccccc2)C(=O)COc2cccc(Cl)c2)c(=O)[nH]c(=O)n1Cc1ccccc1", "Potency": "inconclusive: 29.1 µM [activator, single point]"}, {"smiles": "CC(=O)Nc1ccc(SCCCC(=O)c2ccccc2)cc1", "Potency": "inactive"}, {"smiles": "O=C1c2ccccc2-c2n[nH]c3cccc1c23", "Potency": "inactive"}, {"smiles": "CCOc1ccc(-n2cc(C(=O)Nc3ccc(Cl)cn3)c3cc(OC)c(OC)cc3c2=O)cc1", "Potency": "inconclusive: 25.9 µM [activator, single point]"}, {"smiles": "CC1CN(CCc2ccccc2)c2nc3c(c(=O)n(CC(N)=O)c(=O)n3C)n2C1", "note": "(configuration not stated)", "Potency": "inactive"}, {"smiles": "Cc1ccc(C(C(=O)NC2CCCC2)N(C(=O)c2csnn2)c2cccc(F)c2)o1", "note": "(configuration not stated)", "Potency": "inactive"}, {"smiles": "Cc1ccccc1NC(=S)N(Cc1cccs1)C1CCCCC1", "Potency": "inactive"}, {"smiles": "CCC1Oc2ccccc2N(CC(=O)NCC2CCCO2)C1=O", "note": "(configuration not stated)", "Potency": "inactive"}]}]}
